Reference: the supplement of paper PMC3334620
Whole data set: some 33,000 sequences, median “E-score (-0.5 to 0.5)” near -0.011, cut for the highest 2% near 0.28. This is one part of the list.

Molecular target: T1, Gcr1 (UniProt P07261)
T1 sequence: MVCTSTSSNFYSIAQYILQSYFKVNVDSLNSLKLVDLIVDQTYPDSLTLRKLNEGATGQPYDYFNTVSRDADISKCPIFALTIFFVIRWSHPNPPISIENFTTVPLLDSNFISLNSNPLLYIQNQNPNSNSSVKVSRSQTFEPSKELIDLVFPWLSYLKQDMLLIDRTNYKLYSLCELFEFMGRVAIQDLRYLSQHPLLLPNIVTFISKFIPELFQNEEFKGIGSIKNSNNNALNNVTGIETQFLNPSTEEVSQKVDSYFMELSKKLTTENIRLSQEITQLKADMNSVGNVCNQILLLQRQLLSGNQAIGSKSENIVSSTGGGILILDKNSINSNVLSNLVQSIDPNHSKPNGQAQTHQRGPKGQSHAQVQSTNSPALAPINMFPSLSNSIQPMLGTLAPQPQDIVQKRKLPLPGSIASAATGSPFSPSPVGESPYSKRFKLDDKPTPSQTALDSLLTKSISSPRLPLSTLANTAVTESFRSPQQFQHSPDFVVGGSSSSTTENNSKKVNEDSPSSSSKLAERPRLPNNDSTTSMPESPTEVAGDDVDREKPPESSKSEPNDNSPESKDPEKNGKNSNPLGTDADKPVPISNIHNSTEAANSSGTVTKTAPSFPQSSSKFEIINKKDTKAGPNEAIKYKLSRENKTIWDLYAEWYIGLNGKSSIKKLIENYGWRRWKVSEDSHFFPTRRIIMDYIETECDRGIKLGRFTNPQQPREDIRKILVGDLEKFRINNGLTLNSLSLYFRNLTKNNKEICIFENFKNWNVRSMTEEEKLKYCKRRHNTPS
Assay: PBM E-score (8-mer binding enrichment) (E-score (-0.5 to 0.5)); higher = stronger / more preferred TF binding; most listed sequences are background and not binding sites
Conditions: protein concentration: 100 nM; construct: GST-full length
Experimental: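 Universal 'all 10-mer' protein binding microarrays (Agilent AMADID 015681) probed with GST-tagged S. cerevisiae TFs (full-length or DBD) made by in vitro transcription/translation (PURExpress), about 100-200 nM. Bound TF was detected with fluorescent anti-GST. Each ungapped 8-mer (which stands for itself and its reverse complement) is scored by the PBM enrichment score (E-score), a modified Wilcoxon-Mann-Whitney statistic from -0.5 to +0.5, computed with the Universal PBM Analysis Suite. Scale: above 0.35 generally sequence-specific binding.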

Sequence	PBM E-score
ATCCAAGG	-0.0791
AATTGAGT	0.0935
CGGTGCCC	0.231
AAAAAAGT	0.135
CTGTAACA	-0.0543
AAGGTCAT	-0.292
CCACATCA	0.127
ACTCTGTG	-0.0347
ACCCCTGA	0.0403
AACCCCGG	0.0409
ATGGATTC	0.272
TCACGGCA	0.014
CCGAGGCG	-0.0638
ACGTAATC	-0.147
CTTCCGTA	0.18
ACTATCGG	0.0484
CAATGTCA	-0.124
ATTGGACG	0.143
GTATATAA	-0.0455
AGAGAAAA	-0.0897
ACTTTGCC	-0.0796
AGTGACGG	0.0222
CACTACGG	0.0804
ACGACGGC	-0.239
ACATATAT	-0.132

Sequence	PBM E-score
TCCGATCA	0.0106
GTCAGTGA	-0.0527
AGCCAAGA	0.0162
CAGCTGCC	0.352
AGTGTTTA	0.0198
CCCTTTGC	-0.225
ATTTCGGC	0.141
ATGACTCG	-0.102
ACACGAGC	-0.148
GGATTGCC	-0.202
ATTTAAAT	0.27
AGATAAAG	0.0593
ACAATCCA	-0.0248
AACTTAGC	0.0498
CTAACGGC	0.0471
CGACGGGC	-0.162
CATTCGCG	0.0357
AATCGGGC	0.114
CAATTCAA	-0.0965
ACCTTAAT	-0.0158
CAAGCATG	-0.0982
CCGTATTC	-0.0504
AGCGGCCT	0.171
AGCTGACA	-0.238
CCTTTGCA	-0.0781

Sequence	PBM E-score
GCTAAGTA	0.00549
ACAAGGGA	-0.245
GCTGCGCA	0.0996
AGTTGTAG	0.212
ACGCTCGA	-0.117
ACGTCGGC	-0.155
CCTCCAAA	0.0892
GCGTCACA	-0.219
TAAACTGA	0.00509
CACACCGC	-0.0805
AACATAGG	0.111
AGTAAGAG	-0.0288
AAGTCCGG	-0.113
AAATCGGA	-0.00759
GTCATTGA	-0.16
GATTCTAA	0.0571
AAAGGCTA	-0.193
ACCTATTC	0.217
ACCGCACA	-0.0858
AGCAAGTC	-0.172
ATAACTGC	0.138
ATTTTCTG	0.162
AAGCCCCA	-0.127
ACGGAGCT	-0.175
ATCTATCG	-0.0256

Sequence	PBM E-score
AAAGTCGC	0.019
AATCAGAG	0.0956
CGATCGGC	0.0893
GGACTAAA	-0.16
CGTACTGA	-0.133
CAAGAGAA	0.0254
ACGACGTC	0.11
AACAGTAG	-0.00333
CGCCCCTA	0.0321
CGGACTGA	-0.249
GTAACACA	-0.0779
AGTCGACC	-0.184
GCATCCGA	0.33
TACGGCCA	-0.257
GCGAGAAC	-0.128
CCCGAAGA	-0.168
CCAAACGA	0.021
ATGGGCAG	0.0006
ACACCCCG	-0.0915
CAATTGAG	0.11
CTGCTTGC	-0.112
GCCTAGGA	-0.117
AACTAACG	-0.0576
ACCTGTCT	0.0764
ACTTAGCT	0.0537

Sequence	PBM E-score
ATCTGTAA	-0.00013
CGGCTTTA	-0.157
GCCCCGCA	-0.0148
ACAGCACA	-0.109
ATGAAGCG	-0.2
ACCGGTTC	0.0641
CATCTAGC	-0.0655
CACGTTCC	-0.115
AGGTCGCC	0.279
AGAGTAGA	0.153
CAAACACA	0.0357
CAAGCTAG	-0.0469
CGCGACGA	-0.12
CCATTACC	0.032
AGATCAGC	0.142
ATCTCTTC	-0.0153
ACTCGCGC	-0.123
CGAAAATA	0.0267
GAGAGTTA	-0.0213
TGGGTCAA	-0.204
CGACGACG	-0.0848
CATCCGCA	0.12
CTTTATTA	0.123
AAACTTAT	0.191
AGGCAAGA	0.00064

Sequence	PBM E-score
ACTCATGA	-0.224
TATATAAA	0.205
ACCTCACC	-0.175
CATTCTCA	-0.0558
GTTGATGA	-0.102
CATACGCA	0.0448
AGGACGAC	-0.18
AATTTATG	0.126
CACGGCCG	-0.152
GATTTTGA	0.00918
TTTCCAAA	0.178
AGATTACG	-0.00041
AGACCTTA	-0.0269
TATAATAA	0.204
CCAATGGG	-0.0277
AAAATACT	0.0897
CAAGTCCG	-0.0975
AAATATGT	0.211
ACAATCGC	-0.128
CCCGTAGA	-0.0851
ACCACGGT	-0.23
AGGTCTAA	-0.138
ACATGCCC	-0.194
GCACCCCA	0.241
ATGAATTG	-0.0932

Sequence	PBM E-score
AATCAGGG	-0.113
ACGGGACG	-0.0274
GTCAGCGA	-0.0329
CCCACCAG	0.0742
ATGAGTCA	-0.149
ATATTCAG	0.0283
TGGTCAAA	0.0343
CCAGCCCC	0.0827
AATTATGG	0.239
GTCGACAC	-0.012
CATCGTAC	-0.0279
TACGTAAA	-0.0139
CACCTTAA	0.0723
GTGTTGGA	0.121
CGGGTCAA	-0.138
TGTGAACA	-0.0798
GAGAAGCA	0.111
CTAATAAA	0.223
AGGCGAAC	-0.219
GACGCCCA	0.427
AACTAAGG	0.0143
AAGGCGTG	-0.0647
